Results taken from PubChem BioAssay AID463173 (ICCB-Longwood Screening Facility, Harvard Medical School, 2010).
About 1,700 (3.3%) of roughly 52,000 compounds were called active. Cut-off read from the data, not from the text of the source: active = survival mostly below about 52% (no sharp cut-off); inactive = mostly above about 56%. This is one part of the list.

Tested on: Wild type
Assay: S. aureus survival, RN4220 and DeltatarO strains – OD600, teichoic acid synthesis inhibitors, primary screen (AID 463173)
Conditions: S. aureus RN4220 wild type/DeltatarO growth, OD600, 18 h, hits give low values, screened at 18.75 µg/mL (by protocol)

| SMILES | survival |
| --- | --- |
| CCCCCOc1ccc(/C=C/C(=O)Nc2sc3c(c2C(=O)OCC)CCC3)cc1OC | inactive: 70% |
| CNC(=O)c1cnc2sc(N3CCC(C)CC3)nn2c1=O | inactive: 71% |
| CCCCOc1cccc(C2c3c(-c4cc(C)ccc4O)n[nH]c3C(=O)N2CCOC)c1 (centres undefined) | inactive: 25% |
| O=C(Nc1ccc(F)c(F)c1)c1cc(S(=O)(=O)NC2CCCC2)ccc1F | inactive: 133% |
| Cc1cccc(N2CCN(CCCNc3ncnc4onc(-c5ccc(F)cc5)c34)CC2C)c1 (centres undefined) | inactive: 71% |
| O=C(CCNS(=O)(=O)c1ccc2c(c1)CCN2C(=O)C1CC1)Nc1ccc(OC(F)(F)F)cc1 | inactive: 77% |
| CCOC(=O)c1[nH]c(C)c(CN(C(C)=O)c2ccc(OCC)cc2)c1C | inactive: 94% |
| COc1cccc(C(=O)Nc2ccc3nc(SCCOc4ccccc4)sc3c2)c1 | inactive: 91% |
| CCc1ccc2oc(-c3cc(NC(=O)c4cccs4)ccc3Cl)nc2c1 | inactive: 12% |
| CCC(C)NC(=O)Cn1ccc2cc(S(=O)(=O)N3CCCCCC3)ccc21 (centres undefined) | inactive: 133% |
| COc1cccc2cc(C(=O)Nc3ccc(C)cc3)c(=O)oc12 | inactive: 71% |
| Cc1ccc(CCNC(=O)c2ccc3c(c2)N(Cc2cccc(F)c2)C(=O)c2ccccc2S3)cc1 | inactive: 71% |
| Cc1ccc2c(=O)cc(C(=O)Nc3sc4c(c3C(=O)NCc3cccnc3)CCCC4)oc2c1 | inactive: 89% |
| CCOC(=O)c1ccc(NC(=O)C2=C(C)C(=O)OC23CCN(C(C)C)CC3)cc1 | inactive: 82% |
| CCc1ccc(CN2CCC(C(=O)N(C)CCc3ccc(OC)c(OC)c3)CC2)cc1 | inactive: 111% |
| O=C(NCC(c1cccnc1)N1CCc2ccccc21)c1ccc(Cl)cc1 (centres undefined) | inactive: 80% |
| Cc1ccc(-n2ncc(C(=O)NCCN3CCC(Cc4ccccc4)CC3)c2C2CCN(C(=O)OC(C)(C)C)CC2)cc1 | inactive: 120% |
| Cc1ccc(CN(C(=O)COc2ccc(F)cc2)C2CCS(=O)(=O)C2)o1 (centres undefined) | inactive: 90% |
| Nc1nnc(CCCCn2c(-c3nonc3N)nc3ccccc32)s1 | inactive: 102% |
| CCn1cc(S(=O)(=O)c2ccccc2)c(=O)c2cc(F)c(F)cc21 | inactive: 82% |
| COc1ccc(-c2cc(C(F)(F)F)nc(SCC(=O)NC(C)c3ccccc3)n2)cc1 (centres undefined) | inactive: 78% |
| CC(C)CCNC(=O)c1ccc2nc(Cc3ccccc3)oc2c1 | inactive: 47% |
| Cc1cc(NS(=O)(=O)c2ccc(NC(=O)COc3cc(C)c(Br)cc3C(C)C)cc2)no1 | inactive: 40% |
| CCOc1ccc(N(CC)C(=O)Cn2cnc3sc(C)c(S(=O)(=O)N4CCN(c5ncccn5)CC4)c3c2=O)cc1 | inactive: 78% |
